# Experimental data as given in PubChem BioAssay (NCI).
# More than one record can exist for a structure, and the calls need not agree.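 Growth was measured after 48 h exposure to one concentration of compound in 96-well plates. Values under 10 count as active.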 Some entries of the source have several records that differ or are many. This list holds those alone. There may be further records. This drug was run again and again over the years, at the concentration stated with the values; one value stands for one run. Brackets with × say how often a value occurs here.
# System: OVCAR-8 ovarian
# Assay: NCI-60 one-dose screen, 48 h (100 = growth as untreated, 0 = no growth, -100 = all killed)
# Conditions: 0.25 µM
smiles,measurement,setting,value
COc1cccc2c1C(=O)c1c(O)c3c(c(O)c1C2=O)C[C@@](O)(C(=O)CO)C[C@@H]3OC1CC(N)C(O)C(C)O1 (stereo partly specified),growth,runs of 2008,"inactive: 40.5 (2×), 41.6, 36.3, 50.2, 54.5, 48.6 (2×), 53, 49.6, 53.4, 64.4, 26.1, 36.6, 23.7, 47.5, 34.4, 34.2, 35, 28.3, 25.7, 34, 24.6, 42, 46.2, 46.7 (3×), 83.8, 43.6, 37.8, 27.7, 41.7, 35.8 (2×), 34.7, 25.5, 41.2, 41.1, 36.4, 44.8, 43.8, 41, 37.1, 44.1, 56, 43.1, 43.7, 52.6, 47.8, 42.8, 15.5, 33.1%"
same,growth,runs of 2009,"inactive: 47.9, 48.4, 42.3 (2×), 36.7, 39.4 (2×), 48.2 (2×), 57.6, 60.9, 47.1, 45.6, 42.6, 47.7, 43.1, 67, 61.8, 43.7, 39.2, 36.6, 40.1 (2×), 35, 37.3, 26.1, 36.3 (2×), 29.9, 41.5 (3×), 39.8 (3×), 41.8 (2×), 42.8 (2×), 54.6, 45.4, 25.3, 37, 31.7, 36.1, 36.5, 37.9, 32.6, 35.6, 32.7, 27.3, 34.4, 39 (2×), 28.3, 40.3 (2×), 30.4, 33.7, 30.9, 51.8, 41.3, 40.2, 44.3, 26, 38.4, 35.4%"
same,growth,runs of 2010,"inactive: 40.8, 41.2, 38.8 (2×), 41 (3×), 47.5, 40.6, 47.7, 51.5, 39.8, 47.4, 41.6 (2×), 39.3, 32.9, 36.9, 46.9, 30.3, 36.3, 34.4, 43.6, 47, 32.3, 38.5, 38.2, 42, 37.2, 38.1, 44.6, 30.7, 24.7, 36.5, 42.6, 46.7, 43.3, 44.3, 45.3, 45.4 (2×), 49.4, 50.7, 31.1, 37.8, 46.1, 40.3, 43.7, 39.7, 43.1, 42.8%"
same,growth,runs of 2011,"inactive: 41.1, 40.2 (2×), 38.5, 41, 38.4 (2×), 44.1 (2×), 44.8 (2×), 30.9, 42, 27, 46, 39.8, 47.1, 56, 47.5, 48.3, 46.1, 47, 46.2, 44.6, 46.6, 45, 39.7, 36.7, 41.8, 47.8, 41.3, 35.8 (2×), 42.4, 38.2, 37.1, 39.9, 35.9, 50.3 (2×), 41.2, 35.5, 39.5, 48, 69.5, 39, 43.1 (2×), 42.9, 36.8, 42.3, 42.8% (2×)"
same,growth,runs of 2012,"inactive: 40.7 (2×), 30, 39.3 (2×), 39.5, 39.7 (2×), 37.9, 44.6, 48.1, 46.4, 52.1 (2×), 37.4, 31.7, 34.1, 37.8 (2×), 34.6, 36.8, 38.2, 36.1, 32.5, 32.9, 40.3, 30.4, 47.7, 41.3, 42.3 (2×), 50.8, 52.7, 46.7, 45.3, 44.8, 51.3, 46.9, 43.1, 48.5, 44.3, 41, 44.9, 35.3, 52.3, 32.6, 56.8, 48.4, 46, 49.9 (2×), 50.7, 51.7, 55.3, 54.6, 56.1, 58.6, 68.1, 42.8, 41.7 (2×), 42.4, 55.7, 38.4, 50.3, 42.5, 49.3%"
same,growth,runs of 2013,"inactive: 43.5, 40.6, 42.6 (2×), 46.7, 42.3 (2×), 49.6 (2×), 44.8, 45.9, 52, 47.6 (2×), 29.8, 56.3, 43.7, 56.1 (2×), 62.6, 47.1 (2×), 54.4, 49.9 (2×), 51.7, 55.2, 50.5, 57.8, 44.9, 53.3, 50.7 (3×), 46.5, 50.2, 49.4, 51 (2×), 54.5 (2×), 66.3, 64.1, 48.2, 46.4, 58.7, 50.3, 52.5, 48.8, 49.3, 47.7, 53.5, 49.7, 66, 54.8, 57.6, 64.3, 55.7, 51.4, 33.4, 29.4, 46.3 (2×), 42.4, 55.8, 41.8, 41.7, 43.3, 40.8, 47.5, 39.3%"
same,growth,runs of 2014,"inactive: 54.1, 47.4, 43.8, 49.3 (3×), 41.8, 36.8, 40.7 (2×), 44.4 (2×), 41.3 (3×), 40.8, 56.7, 45.6, 49.7, 56, 51.1 (3×), 55.4, 56.3, 66, 45.3 (3×), 44.9, 36.7 (2×), 47.1 (2×), 45.9, 47.8, 46.5, 39.7, 49.6, 45, 46.4, 48.2, 48.4, 47.6, 48.1, 50.3, 45.4, 44.1 (3×), 38.8, 47, 46.7 (2×), 35.9, 49.2, 33.9, 42.7, 35.2, 38.4, 48.3, 47.9, 40.1, 43.9, 46.1, 47.7, 42.3, 38.1, 41.5, 49.8, 41.6, 41, 36, 37.4%"
same,growth,runs of 2015,"inactive: 44.9, 42.3 (3×), 38.4 (2×), 40.6, 42.6, 51, 46.9, 43.5, 37.9 (2×), 51.9, 56.3, 43.3 (2×), 51.5, 52.7, 52.4, 37.6 (2×), 35.7 (3×), 33.3, 46.4 (2×), 41.3 (2×), 44.8, 40.7, 42.4 (2×), 40.3 (2×), 51.3, 48.3, 41.2 (2×), 41.6, 43.9, 45.5, 45, 46.2, 45.4, 39.9 (2×), 42.5 (2×), 29.2, 40.1, 36.3, 31.5, 35.3, 41.1 (2×), 55.9, 43.7, 30.1, 35.8, 34.6, 38.1, 55.8, 39.4, 33.5, 43.6, 44.6 (2×), 49.7, 35.6, 37.2, 34, 47, 49.2, 47.6, 46.3 (2×), 51.8, 44.7%"
same,growth,runs of 2016,"inactive: 43.3, 39.4, 41.2, 41.3, 47.4, 43.8 (3×), 41.5 (2×), 46.7, 42.9 (2×), 32.3, 47.9, 40.2, 39.9, 41.1, 47.6 (2×), 32.5, 33.3, 38.2, 36.8, 43.5, 39.3, 38.1, 31.9, 35.4, 38.3 (2×), 36.4, 46.5, 37.8, 49.7 (3×), 44.3 (2×), 49.2, 39.2, 45.5, 37.2, 48.1 (2×), 48.2, 46.8, 44.4, 41.7, 48.3, 50, 50.9, 52.3, 55.3, 50.3, 57.6, 55.9, 51.8, 53.2 (2×), 51.2, 51.3, 43.1, 40.8, 39.1, 40.3%"
same,growth,runs of 2017,"inactive: 45.3, 43.6, 51.8, 41.2, 37.7 (2×), 41.1 (2×), 37.5, 41.8, 42.5, 45.6, 45.4 (2×), 39.7, 33.9, 33.3, 34.4 (2×), 35.4 (2×), 39.9 (2×), 44.1, 45.8, 41 (2×), 30.4, 37.6, 38.2 (2×), 39.2 (2×), 39.5, 43.1 (2×), 43.3 (2×), 39.1, 40.1, 37.4 (2×), 43.5, 41.3, 40.7, 36.7, 44.8, 39.3, 34.5, 34, 38.1, 36.9 (3×), 35.2, 42.9, 40.3, 36.1, 36.8 (2×), 40.8, 41.6, 35.1, 42, 42.4, 39.4, 37, 42.6, 36, 39, 36.2, 36.6, 37.3, 35.3%"
same,growth,runs of 2018,"inactive: 36.5, 33.8, 37.5 (2×), 35.5, 35 (2×), 36.7, 34.9, 35.7 (2×), 35.2, 38.1 (2×), 39.4 (3×), 43.3, 33.9, 42.7, 39.5, 39.3, 42 (2×), 41.2, 46.1, 38.3, 40.7, 41.5 (2×), 38.8, 40.3 (2×), 37.6 (2×), 41 (2×), 44.9, 37.8 (2×), 35.8, 41.1, 37.4 (2×), 38.6, 35.6, 38.2, 39.8, 36, 31.2, 29.8%"
